{"source": "PubChem BioAssay (NCATS)", "key": {"[1]": {"target": "Rap guanine nucleotide exchange factor 3 (Homo sapiens) (UniProt O95398)", "sequence (O95398 whole entry, looked up)": "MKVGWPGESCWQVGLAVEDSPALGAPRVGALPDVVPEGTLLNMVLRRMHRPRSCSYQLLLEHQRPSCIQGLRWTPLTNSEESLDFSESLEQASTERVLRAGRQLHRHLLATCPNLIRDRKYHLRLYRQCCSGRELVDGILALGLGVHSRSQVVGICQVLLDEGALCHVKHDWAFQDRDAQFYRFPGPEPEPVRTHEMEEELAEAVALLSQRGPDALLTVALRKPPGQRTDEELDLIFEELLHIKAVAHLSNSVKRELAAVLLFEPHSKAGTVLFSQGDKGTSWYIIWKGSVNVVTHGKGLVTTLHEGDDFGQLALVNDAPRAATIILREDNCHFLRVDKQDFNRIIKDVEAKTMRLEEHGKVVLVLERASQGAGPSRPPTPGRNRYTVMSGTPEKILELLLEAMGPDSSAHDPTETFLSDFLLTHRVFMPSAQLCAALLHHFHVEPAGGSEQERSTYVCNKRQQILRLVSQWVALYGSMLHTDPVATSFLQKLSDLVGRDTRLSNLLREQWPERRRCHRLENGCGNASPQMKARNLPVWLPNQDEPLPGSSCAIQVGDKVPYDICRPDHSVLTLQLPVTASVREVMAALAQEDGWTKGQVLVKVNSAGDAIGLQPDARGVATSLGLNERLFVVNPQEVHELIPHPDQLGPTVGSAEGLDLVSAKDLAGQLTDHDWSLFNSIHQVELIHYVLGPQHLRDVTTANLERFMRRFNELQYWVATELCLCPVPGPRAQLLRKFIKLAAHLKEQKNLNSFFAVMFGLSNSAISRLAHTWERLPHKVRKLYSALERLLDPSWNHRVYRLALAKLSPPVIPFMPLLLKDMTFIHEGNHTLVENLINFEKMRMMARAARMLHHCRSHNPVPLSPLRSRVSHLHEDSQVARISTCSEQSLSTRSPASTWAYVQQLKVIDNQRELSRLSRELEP", "experiment": "Confirmatory qHTS for antagonist of cAMP-regulated guanine nucleotide exchange factor 3 (EPAC1) (AID 1645880); further: nearly all actives have a fitted effect of over 55% in size", "details": "EPAC1 Rap1B-BODIPY-GDP exchange, fluorescence; series mostly up to 115 µM", "outline": "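Released BODIPY-GDP fluoresces less than Rap1-bound BODIPY-GDP; the signal is followed at 480/540 nm at 5-min intervals over 30 min, after 5 min at room temperature. Reactions contain 100 nM EPAC1, 250 nM RAP1B-BODIPY-GDP and 50 uM GDP; results are normalized to ATA and DMSO.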"}, "[2]": {"target": "Rap guanine nucleotide exchange factor 4 (Homo sapiens) (UniProt Q8WZA2)", "sequence (Q8WZA2 whole entry, looked up)": "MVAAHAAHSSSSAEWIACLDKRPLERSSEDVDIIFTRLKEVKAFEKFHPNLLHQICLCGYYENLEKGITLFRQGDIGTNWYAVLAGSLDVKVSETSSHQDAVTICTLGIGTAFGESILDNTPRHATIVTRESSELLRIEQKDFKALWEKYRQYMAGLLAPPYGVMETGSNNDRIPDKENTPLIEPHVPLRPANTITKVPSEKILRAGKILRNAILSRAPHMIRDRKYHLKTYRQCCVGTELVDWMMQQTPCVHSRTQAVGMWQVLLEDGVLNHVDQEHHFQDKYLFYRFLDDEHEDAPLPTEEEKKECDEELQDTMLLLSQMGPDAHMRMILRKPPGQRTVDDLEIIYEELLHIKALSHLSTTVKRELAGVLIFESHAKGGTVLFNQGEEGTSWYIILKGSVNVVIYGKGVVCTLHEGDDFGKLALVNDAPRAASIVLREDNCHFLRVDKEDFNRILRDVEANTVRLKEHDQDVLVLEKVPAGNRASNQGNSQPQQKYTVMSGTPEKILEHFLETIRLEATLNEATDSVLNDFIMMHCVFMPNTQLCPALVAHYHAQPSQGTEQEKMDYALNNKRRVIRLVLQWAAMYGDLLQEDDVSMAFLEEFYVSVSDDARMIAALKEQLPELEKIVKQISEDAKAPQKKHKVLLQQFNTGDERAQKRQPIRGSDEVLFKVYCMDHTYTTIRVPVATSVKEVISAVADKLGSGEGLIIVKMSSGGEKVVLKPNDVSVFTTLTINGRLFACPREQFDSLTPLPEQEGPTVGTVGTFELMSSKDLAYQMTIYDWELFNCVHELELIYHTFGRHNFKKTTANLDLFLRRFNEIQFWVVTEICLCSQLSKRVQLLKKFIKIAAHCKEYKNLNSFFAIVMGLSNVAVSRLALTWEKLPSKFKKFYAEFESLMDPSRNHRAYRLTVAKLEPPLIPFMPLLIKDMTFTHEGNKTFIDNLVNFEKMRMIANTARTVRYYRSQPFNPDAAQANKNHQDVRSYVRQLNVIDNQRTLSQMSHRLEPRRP", "experiment": "Confirmatory qHTS for antagonist of cAMP-regulated guanine nucleotide exchange factor 4 (EPAC2) (AID 1645885); further: nearly all actives have a fitted effect of over 25% in size", "details": "activity change, negative = inhibition: at 12.7 µM (top of the series) unless noted"}, "[3]": {"target": "Rap guanine nucleotide exchange factor 3 (Homo sapiens) (UniProt O95398)", "experiment": "Counterscreen qHTS for agonist of cAMP-regulated guanine nucleotide exchange factor 3 (EPAC1) (AID 1645889); further: nearly all actives have a fitted effect of over 40% in size", "details": "EPAC1 Rap1B-BODIPY-GDP exchange, fluorescence", "outline": "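Measured: fluorescence of BODIPY-GDP bound to Rap1B, which falls as exchange proceeds. Conditions include 50 uM competing GDP, 5 and 30 min reads, and a later cAMP challenge for antagonist detection.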"}}, "note": "This list was built around the results that the source calls inconclusive (neither active nor inactive); the mix of calls is not that of the screen. Potencies of inconclusive entries are left out as doubtful fits. Active and inactive are the calls of the source. The call rests on the fitted dose curve; in most records, active means well fitted curve in the direction sought with a large enough effect; inconclusive means small, poorly fitted or top-dose-only effect, or another doubt; inactive means no such curve, though single readings can be large; an effect the other way counts as inactive or inconclusive. Potency means the concentration at half of the fitted maximal effect; tags describe the fitted curve by direction and shape.", "data": [{"smiles": "CC1=C(C(=O)OCc2ccccc2)C(c2ccc(C(C)(C)C)cc2)NC(=O)N1CCCCCC(=O)O", "note": "(stereo not given)", "values": [{"measurement": "Potency", "setting": "[1]", "result": "inconclusive [inhibitor, partial curve, poor fit]"}, {"measurement": "Potency", "setting": "[2]", "result": "inconclusive [inhibitor, partial curve]"}, {"measurement": "Potency", "setting": "[3]", "result": "inactive"}]}, {"smiles": "O=C(/C=C/c1ccco1)NCC1OCCc2ccccc21", "note": "(stereo not given)", "values": [{"measurement": "Potency", "setting": "[1]", "result": "active: 19 µM"}, {"measurement": "Potency", "setting": "[2]", "result": "inconclusive [inhibitor, single point]"}, {"measurement": "Potency", "setting": "[3]", "result": "inconclusive [activator, partial curve, poor fit]"}]}, {"smiles": "CCCc1[nH]c2ccc(C#N)cc2c1CCC", "values": [{"measurement": "Potency", "setting": "[1]", "result": "inconclusive [inhibitor, full curve]"}, {"measurement": "Potency", "setting": "[2]", "result": "inconclusive [inhibitor, partial curve, poor fit]"}, {"measurement": "Potency", "setting": "[3]", "result": "inactive"}]}, {"smiles": "COc1ccc(OC)c2c1C(=O)c1ccccc1C2=O", "values": [{"measurement": "Potency", "setting": "[1]", "result": "inconclusive [inhibitor, partial curve, poor fit]"}, {"measurement": "Potency", "setting": "[2]", "result": "inactive"}, {"measurement": "Potency", "setting": "[3]", "result": "inconclusive [activator, partial curve, poor fit]"}]}, {"smiles": "CC(C)Cn1c(N)c(C(=O)COC(=O)c2cc(-c3ccco3)nc3ccccc23)c(=O)n(C)c1=O", "values": [{"measurement": "Potency", "setting": "[1]", "result": "active: 30.1 µM"}, {"measurement": "Potency", "setting": "[2]", "result": "inconclusive [inhibitor, partial curve]"}, {"measurement": "Potency", "setting": "[3]", "result": "inactive"}]}]}
